{"source": "the supplement of paper PMC3334620", "note": "The full ranking holds about 33,000 sequences; the median of “E-score (-0.5 to 0.5)” is about -0.01, and the highest 2% start at about 0.26. The list shows a part of the results.", "data": [{"biological_target": "Ste12 (UniProt P13574)", "test": "PBM E-score (8-mer binding enrichment) (E-score (-0.5 to 0.5)); higher = stronger / more preferred TF binding; most listed sequences are background and not binding sites", "settings": "protein concentration: 200 nM; construct: GST-DNA-binding domain", "in_short": "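Each ungapped eight-base word and its reverse complement, pooled, received an E-score from the Universal PBM Analysis Suite. Underlying scans, normalised with masliner, recorded fluorescent anti-GST bound to GST-tagged yeast transcription factors. These were applied at about 100-200 nM to universal all-10-mer Agilent arrays double-stranded by primer extension.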", "values": [{"sequence": "ATGTACTA", "PBM E-score": -0.0888}, {"sequence": "CGTCACTA", "PBM E-score": 0.0258}, {"sequence": "CCAATCAG", "PBM E-score": -0.183}, {"sequence": "AGCGGCAG", "PBM E-score": -0.00436}, {"sequence": "CCTGTTAA", "PBM E-score": -0.0279}, {"sequence": "ATAGAACA", "PBM E-score": -0.0444}, {"sequence": "AAAGGTCT", "PBM E-score": 0.0318}, {"sequence": "AGAGTGTA", "PBM E-score": -0.0197}, {"sequence": "TAGAGGAA", "PBM E-score": -0.14}, {"sequence": "ATCACGCA", "PBM E-score": -0.0696}, {"sequence": "AAAGCGCT", "PBM E-score": 0.0221}, {"sequence": "ACGCGGAT", "PBM E-score": 0.0567}, {"sequence": "ATTTCCCG", "PBM E-score": 0.158}, {"sequence": "CGTCGGGA", "PBM E-score": 0.0845}, {"sequence": "CTGGTCGC", "PBM E-score": 0.0843}, {"sequence": "ATTGGCAA", "PBM E-score": 0.219}, {"sequence": "GTAGCGGA", "PBM E-score": -0.0717}, {"sequence": "AAAAACAA", "PBM E-score": 0.251}, {"sequence": "CGTCCTCA", "PBM E-score": -0.128}, {"sequence": "GGCTGAGA", "PBM E-score": 0.0183}, {"sequence": "ATGGCGAA", "PBM E-score": 0.035}, {"sequence": "ATGCAGAG", "PBM E-score": -0.209}, {"sequence": "ACCCCCTC", "PBM E-score": -0.154}, {"sequence": "CCATGGTC", "PBM E-score": -0.137}, {"sequence": "GACAACTC", "PBM E-score": 0.103}, {"sequence": "CACGGCTG", "PBM E-score": -0.0977}, {"sequence": "GTCCATCA", "PBM E-score": -0.0824}, {"sequence": "GTAAGGCA", "PBM E-score": -0.0942}, {"sequence": "AGGTCCCG", "PBM E-score": -0.00172}, {"sequence": "ATATGGAG", "PBM E-score": 0.0774}, {"sequence": "GATCCCGA", "PBM E-score": -0.09}, {"sequence": "CCCCCGGC", "PBM E-score": -0.182}, {"sequence": "AGCTGGGG", "PBM E-score": -0.136}, {"sequence": "CAGCCCCC", "PBM E-score": -0.189}, {"sequence": "CTGGGAGA", "PBM E-score": -0.123}, {"sequence": "ACGAATTC", "PBM E-score": -0.0964}, {"sequence": "CGCACCAA", "PBM E-score": 0.0724}, {"sequence": "GGGATCGA", "PBM E-score": 0.166}, {"sequence": "ACCGTACC", "PBM E-score": -0.127}, {"sequence": "GTACCGAA", "PBM E-score": 0.0964}, {"sequence": "ATATACAC", "PBM E-score": 0.152}, {"sequence": "AACAACGG", "PBM E-score": -0.0786}, {"sequence": "AAAGGGGT", "PBM E-score": -0.0827}, {"sequence": "CCTACTTC", "PBM E-score": -0.0902}, {"sequence": "CTGCATCA", "PBM E-score": -0.0245}, {"sequence": "CCGCTCAA", "PBM E-score": -0.0613}, {"sequence": "GCCTCCGA", "PBM E-score": -0.208}, {"sequence": "ATCAGCGC", "PBM E-score": 0.0161}, {"sequence": "AGACACTG", "PBM E-score": -0.146}, {"sequence": "CGTAGTAC", "PBM E-score": -0.118}, {"sequence": "AGGGGAAG", "PBM E-score": -0.0544}, {"sequence": "CCTGTGTC", "PBM E-score": 0.0718}, {"sequence": "GATCGGGA", "PBM E-score": 0.0339}, {"sequence": "CTAAATAG", "PBM E-score": 0.143}, {"sequence": "AGTCAATG", "PBM E-score": -0.0167}, {"sequence": "CCTCAGTA", "PBM E-score": -0.161}, {"sequence": "AATCATTA", "PBM E-score": 0.177}, {"sequence": "CCAGTTCA", "PBM E-score": 0.0556}, {"sequence": "GAGGATAC", "PBM E-score": -0.259}, {"sequence": "ACTTGAAT", "PBM E-score": 0.0108}, {"sequence": "ACCAGCCG", "PBM E-score": -0.111}, {"sequence": "CGTAGTCA", "PBM E-score": -0.237}, {"sequence": "TACAGAAA", "PBM E-score": 0.177}, {"sequence": "CGACCTCC", "PBM E-score": 0.0465}, {"sequence": "CAGGTGGC", "PBM E-score": -0.0169}, {"sequence": "ATAGTTGC", "PBM E-score": 0.12}, {"sequence": "CGACGTGA", "PBM E-score": 0.0143}, {"sequence": "ATCTCAAG", "PBM E-score": 0.0665}, {"sequence": "AGGCTTGA", "PBM E-score": 0.041}, {"sequence": "GGAGGAAC", "PBM E-score": -0.163}, {"sequence": "CGGTCAAA", "PBM E-score": 0.156}, {"sequence": "ATAAGGCG", "PBM E-score": 0.0828}, {"sequence": "AGCTCAAA", "PBM E-score": 0.071}, {"sequence": "CAAGACTC", "PBM E-score": -0.0925}, {"sequence": "CCGGTCAA", "PBM E-score": 0.0375}, {"sequence": "CGGCACCC", "PBM E-score": -0.0925}, {"sequence": "CATCGCGA", "PBM E-score": -0.0289}, {"sequence": "AGTAGGCA", "PBM E-score": 0.187}, {"sequence": "ACGACTCG", "PBM E-score": -0.152}, {"sequence": "TCACGACA", "PBM E-score": -0.103}, {"sequence": "CCTCTCCG", "PBM E-score": -0.263}, {"sequence": "AGTGACAA", "PBM E-score": -0.0488}, {"sequence": "CCCAAAGC", "PBM E-score": -0.134}, {"sequence": "TTACGAAA", "PBM E-score": 0.194}, {"sequence": "AAGCCATT", "PBM E-score": -0.0192}, {"sequence": "AACTATTG", "PBM E-score": 0.147}, {"sequence": "AGTAACCC", "PBM E-score": -0.0499}, {"sequence": "ATAGCTTC", "PBM E-score": -0.0528}, {"sequence": "GATACTAC", "PBM E-score": -0.0702}, {"sequence": "CGGTAATA", "PBM E-score": 0.156}, {"sequence": "CTCGGGTC", "PBM E-score": -0.00919}, {"sequence": "AGGAGGCC", "PBM E-score": -0.198}, {"sequence": "GAATATAA", "PBM E-score": 0.161}, {"sequence": "CTAGAAAC", "PBM E-score": 0.124}, {"sequence": "GGTGCCGA", "PBM E-score": 0.00601}, {"sequence": "ACGGTCGG", "PBM E-score": 0.00084}, {"sequence": "TGATCGCA", "PBM E-score": -0.196}, {"sequence": "AAGAAAGA", "PBM E-score": 0.237}, {"sequence": "AATGCCCT", "PBM E-score": -0.216}, {"sequence": "ATCTGACA", "PBM E-score": 0.116}, {"sequence": "AGCTCTCG", "PBM E-score": -0.0135}, {"sequence": "CCATGTAG", "PBM E-score": -0.244}, {"sequence": "CCCTCAAC", "PBM E-score": -0.174}, {"sequence": "CGATATCG", "PBM E-score": 0.159}, {"sequence": "CAGGTAAC", "PBM E-score": -0.142}, {"sequence": "CGTATCTA", "PBM E-score": 0.0436}, {"sequence": "ACAGAAAC", "PBM E-score": 0.167}, {"sequence": "AGGAGTGC", "PBM E-score": -0.0613}, {"sequence": "GAAACCTC", "PBM E-score": 0.318}, {"sequence": "AGATGAGG", "PBM E-score": -0.127}, {"sequence": "CCCAATAG", "PBM E-score": 0.00964}, {"sequence": "AGCGTTTC", "PBM E-score": 0.294}, {"sequence": "GGTAGGTA", "PBM E-score": -0.177}, {"sequence": "GCGTCCGA", "PBM E-score": -0.0538}, {"sequence": "CTAAGATC", "PBM E-score": -0.0183}, {"sequence": "ATGGGCGG", "PBM E-score": 0.188}, {"sequence": "AATAATTA", "PBM E-score": 0.24}, {"sequence": "AAGTATGG", "PBM E-score": 0.0994}, {"sequence": "ATTAGTAC", "PBM E-score": 0.0513}, {"sequence": "ATCCTGTG", "PBM E-score": 0.019}, {"sequence": "GATAGACA", "PBM E-score": -0.162}, {"sequence": "CCAGTCGG", "PBM E-score": -0.0196}, {"sequence": "TGACCTAA", "PBM E-score": 0.0508}, {"sequence": "AGGTGACT", "PBM E-score": -0.117}, {"sequence": "CTTTCCGC", "PBM E-score": 0.0155}, {"sequence": "CATTAGCA", "PBM E-score": 0.13}, {"sequence": "AGGGGGCC", "PBM E-score": -0.177}, {"sequence": "GCAGATCC", "PBM E-score": 0.0135}, {"sequence": "CCACATTC", "PBM E-score": -0.00143}, {"sequence": "ACGTAGCA", "PBM E-score": -0.13}, {"sequence": "AAGGTTAA", "PBM E-score": 0.122}, {"sequence": "CGACGACC", "PBM E-score": 0.0972}, {"sequence": "CGCCTTCC", "PBM E-score": -0.127}, {"sequence": "AAACATTC", "PBM E-score": 0.12}, {"sequence": "GGCGGATA", "PBM E-score": 0.044}, {"sequence": "AGATTAGG", "PBM E-score": -0.102}, {"sequence": "GCCAACCA", "PBM E-score": -0.082}, {"sequence": "CGTGCGTA", "PBM E-score": -0.0557}, {"sequence": "AGCCGGAA", "PBM E-score": 0.089}, {"sequence": "ATTCCAAC", "PBM E-score": 0.00583}, {"sequence": "GCCCGGCC", "PBM E-score": -0.208}, {"sequence": "CGAGCACA", "PBM E-score": -0.0116}, {"sequence": "GAATGTAA", "PBM E-score": 0.201}, {"sequence": "CGCGCTAA", "PBM E-score": 0.138}, {"sequence": "AACGGAAT", "PBM E-score": 0.0469}, {"sequence": "ACAGCCGA", "PBM E-score": -0.101}, {"sequence": "AGCCTTTG", "PBM E-score": -0.0528}, {"sequence": "ATATGAAT", "PBM E-score": 0.152}, {"sequence": "AGGCCGGC", "PBM E-score": 0.0607}, {"sequence": "CCCGTTAG", "PBM E-score": -0.117}, {"sequence": "CGGCATAG", "PBM E-score": 0.0435}, {"sequence": "TATTTTAA", "PBM E-score": 0.301}, {"sequence": "CCCATCAG", "PBM E-score": -0.193}, {"sequence": "ACCCCAGC", "PBM E-score": 0.0339}, {"sequence": "CCCGACAG", "PBM E-score": 0.0377}, {"sequence": "ATTACGAA", "PBM E-score": 0.155}, {"sequence": "ACGCAAAC", "PBM E-score": 0.00476}, {"sequence": "ACGTCTTC", "PBM E-score": 0.0885}, {"sequence": "ACCTATGC", "PBM E-score": -0.0393}, {"sequence": "CGCGTTAG", "PBM E-score": -0.00975}, {"sequence": "ATACGTGA", "PBM E-score": -0.019}, {"sequence": "CCCAGCCA", "PBM E-score": 0.0406}, {"sequence": "ATGTCTAG", "PBM E-score": -0.0749}, {"sequence": "CCTCGGTA", "PBM E-score": -0.119}, {"sequence": "GATGGTGC", "PBM E-score": -0.252}, {"sequence": "AGGTGCTA", "PBM E-score": -0.0701}, {"sequence": "ATGAACTA", "PBM E-score": 0.00362}, {"sequence": "AACGCAAT", "PBM E-score": 0.0574}, {"sequence": "AAGCATCA", "PBM E-score": 0.0439}, {"sequence": "ACCACTTC", "PBM E-score": -0.0724}, {"sequence": "AGCTGCGC", "PBM E-score": -0.177}, {"sequence": "AGGGAAGG", "PBM E-score": -0.0308}]}]}
